B1: PhoQ; a variant is named by its letters at X, in order, P23837 (parent)
chain: MKKLLRLFFPLSLRVRFLLATAAVVLVLSLAYGMVALIGYSVSFDKTTFRLLRGESNLFYTLAKWENNKLHVELPENIDKQSPTMTLIYDENGQLLWAQRDVPWLMKMIQPDWLKSNGFHEIEADVNDTSLLLSGDHSIQQQLQEVREDDDDAEMTHSVAVNVYPATSRMPKLTIVVVDTIPVELKSSYMVWSWFIYVLSANLLLVIPLLWVAAWWSLRPIEALAKEVRELEEHNRELLNPATTRELTSLVRNLNRLLKSERERYDKYRTTLTDLTHSLKTPLXXLQXXLRSLRSEKMSVSDAEPVMLEQISRISQQIGYYLHRASMRGGTLLSRELHPVAPLLDNLTSALNKVYQRKGVNISLDISPEISFVGEQNDFVEVMGNVLDNACKYCLEFVEISARQTDEHLYIVVEDDGPGIPLSKREVIFDRGQRVDTLRPGQGVGLAVAREITEQYEGKIVAGESMLGGARMEVIFGRQHSAPKDE

The list shows a part of the results.

The variants in the assay derive from B1. Description: enrichment ratio after two sorts for PhoP signalling (ratio (wild type AVST 3.29)); higher = more functional. The conditions noted are these: with PhoP (E. coli).
Turning to ITIE, the enrichment ratio is no more than 0.25.

In the case of TVMG, the enrichment ratio is 1.95.

With RCFK, the enrichment ratio is no more than 0.25.

In the case of VCFR, the enrichment ratio was no more than 0.25.

Regarding DFLE, the enrichment ratio was no more than 0.25.

As for MWFY, the enrichment ratio was no more than 0.25.

In the case of RLGM, the enrichment ratio was no more than 0.25.

For VYNP, the enrichment ratio is no more than 0.25.

HNKC: the enrichment ratio was no more than 0.25.

As for ELAV, the enrichment ratio is no more than 0.25.

With DMRE, the enrichment ratio was no more than 0.25.

Take WAGD: the enrichment ratio is no more than 0.25.

Take YMAW: the enrichment ratio is no more than 0.25.

As for RRTS, the enrichment ratio is no more than 0.25.

As for LVCF, the enrichment ratio was no more than 0.25.

As for GYFE, the enrichment ratio was no more than 0.25.

Take YDTQ: the enrichment ratio was no more than 0.25.

On to YINH, for which the enrichment ratio was no more than 0.25.

On to VGNF, for which the enrichment ratio was no more than 0.25.

Consider MAPR, for which the enrichment ratio was no more than 0.25.

On to FGSQ, for which the enrichment ratio was no more than 0.25.

YWEP: the enrichment ratio is no more than 0.25.

As for LWWW, the enrichment ratio is no more than 0.25.

Regarding YIPT, the enrichment ratio is no more than 0.25.

Take PCVT: the enrichment ratio was no more than 0.25.

Turning to DSQK, the enrichment ratio was no more than 0.25.

In the case of KNTY, the enrichment ratio is no more than 0.25.

With TTNT, the enrichment ratio turned out to be 9.92.

For the variant VTSE, the enrichment ratio is no more than 0.25.

As for VCAV, the enrichment ratio came out at 2.69.

On to TWGL, for which the enrichment ratio is no more than 0.25.

For the variant DIDC, the enrichment ratio is no more than 0.25.

On to HVPQ, for which the enrichment ratio was no more than 0.25.

With DCQY, the enrichment ratio is no more than 0.25.

Take AKSY: the enrichment ratio amounted to 2.91.

With TEIW, the enrichment ratio was no more than 0.25.

For the variant EDWS, the enrichment ratio was no more than 0.25.

Take YSAL: the enrichment ratio is no more than 0.25.

In the case of GCRL, the enrichment ratio is no more than 0.25.

For FDSV, the enrichment ratio is no more than 0.25.

For the variant NEGQ, the enrichment ratio is no more than 0.25.

For RENR, the enrichment ratio was no more than 0.25.

Turning to LEKV, the enrichment ratio was no more than 0.25.

Consider ETTT, for which the enrichment ratio is no more than 0.25.

On to VRLY, for which the enrichment ratio is no more than 0.25.

Take RGTH: the enrichment ratio is no more than 0.25.

Turning to AKQN, the enrichment ratio was no more than 0.25.

In the case of ARAM, the enrichment ratio is no more than 0.25.

RLLH: the enrichment ratio is no more than 0.25.

For the variant TDIY, the enrichment ratio is no more than 0.25.

Turning to AMQW, the enrichment ratio was no more than 0.25.

On to ITQD, for which the enrichment ratio is no more than 0.25.

For GKWC, the enrichment ratio was no more than 0.25.

For QECN, the enrichment ratio was found to be 9.04.

For TEEG, the enrichment ratio was found to be 9.76.

For the variant TQRW, the enrichment ratio was no more than 0.25.

Turning to ETGP, the enrichment ratio is no more than 0.25.

Consider QSRK, for which the enrichment ratio is no more than 0.25.

Regarding CFFS, the enrichment ratio is no more than 0.25.

For NHTG, the enrichment ratio is no more than 0.25.

MIGS: the enrichment ratio was determined as 9.52.

Consider ADHF, for which the enrichment ratio is no more than 0.25.

For RHTL, the enrichment ratio is no more than 0.25.

With GKPK, the enrichment ratio was no more than 0.25.

In the case of RSMC, the enrichment ratio is no more than 0.25.

Regarding FAFA, the enrichment ratio is no more than 0.25.

On to LWRY, for which the enrichment ratio is no more than 0.25.

On to HFCI, for which the enrichment ratio is no more than 0.25.

As for ASIN, the enrichment ratio was determined as 12.

For CSVV, the enrichment ratio was no more than 0.25.

Consider FFIN, for which the enrichment ratio is no more than 0.25.

Take MTDT: the enrichment ratio was no more than 0.25.

Turning to YETI, the enrichment ratio is no more than 0.25.

Regarding IPPQ, the enrichment ratio is no more than 0.25.

With YQLK, the enrichment ratio is no more than 0.25.

As for AAAC, the enrichment ratio is no more than 0.25.

Turning to TDDF, the enrichment ratio was no more than 0.25.

LFMM: the enrichment ratio is no more than 0.25.

Consider TMKV, for which the enrichment ratio was no more than 0.25.

On to PAFW, for which the enrichment ratio is no more than 0.25.

For the variant HCHA, the enrichment ratio was no more than 0.25.

For the variant ALDK, the enrichment ratio is no more than 0.25.

As to WIYR, the enrichment ratio is no more than 0.25.

As to QCWR, the enrichment ratio was no more than 0.25.

As to EYRT, the enrichment ratio is no more than 0.25.

Take FWPG: the enrichment ratio is no more than 0.25.

As for HFGH, the enrichment ratio was no more than 0.25.

Turning to QCHL, the enrichment ratio is no more than 0.25.

Regarding NAGY, the enrichment ratio was no more than 0.25.

Regarding FKHW, the enrichment ratio is no more than 0.25.

As for MNSR, the enrichment ratio is no more than 0.25.

Regarding DEDA, the enrichment ratio is no more than 0.25.

As for PTVY, the enrichment ratio is no more than 0.25.

For the variant LFDD, the enrichment ratio is no more than 0.25.

In the case of MPRS, the enrichment ratio is no more than 0.25.

In the case of SLHS, the enrichment ratio was no more than 0.25.

With RQRN, the enrichment ratio was no more than 0.25.

On to PMPP, for which the enrichment ratio is no more than 0.25.

Turning to QIYW, the enrichment ratio is no more than 0.25.

SIRQ: the enrichment ratio was no more than 0.25.

As to NMQL, the enrichment ratio was no more than 0.25.

Regarding MFED, the enrichment ratio was no more than 0.25.

Consider INYA, for which the enrichment ratio is no more than 0.25.

With INLN, the enrichment ratio was no more than 0.25.

Consider IHMV, for which the enrichment ratio is no more than 0.25.

KAYT: the enrichment ratio was no more than 0.25.

In the case of TYCL, the enrichment ratio is 6.72.

For PTRE, the enrichment ratio is no more than 0.25.

In the case of KIFR, the enrichment ratio is no more than 0.25.

As to EHFP, the enrichment ratio was no more than 0.25.

In the case of HQEH, the enrichment ratio was found to be 0.706.

Regarding HDAW, the enrichment ratio is no more than 0.25.

For RPAR, the enrichment ratio was no more than 0.25.

For GLVG, the enrichment ratio is no more than 0.25.

In the case of GLRG, the enrichment ratio is no more than 0.25.

On to KKTY, for which the enrichment ratio was no more than 0.25.

Regarding SESK, the enrichment ratio is 5.02.

In the case of QCCT, the enrichment ratio is no more than 0.25.

For the variant RWKR, the enrichment ratio is no more than 0.25.

As to DSPC, the enrichment ratio is no more than 0.25.

For MCRA, the enrichment ratio is no more than 0.25.

Regarding FKQP, the enrichment ratio was no more than 0.25.

Regarding NTYT, the enrichment ratio was no more than 0.25.

For EYTP, the enrichment ratio was no more than 0.25.

Take YCHS: the enrichment ratio was no more than 0.25.

In the case of RNLC, the enrichment ratio was no more than 0.25.

In the case of HDWR, the enrichment ratio is no more than 0.25.

For the variant HEFD, the enrichment ratio is no more than 0.25.

VIIF: the enrichment ratio is no more than 0.25.

Turning to GLRP, the enrichment ratio is no more than 0.25.

Turning to VKTC, the enrichment ratio is no more than 0.25.

In the case of KHFS, the enrichment ratio was no more than 0.25.

Take HEHN: the enrichment ratio was no more than 0.25.

For YSPR, the enrichment ratio is no more than 0.25.

With HKSP, the enrichment ratio was no more than 0.25.

Consider QPSK, for which the enrichment ratio is no more than 0.25.

On to GFQF, for which the enrichment ratio was no more than 0.25.

On to HEFN, for which the enrichment ratio was no more than 0.25.

For VKTF, the enrichment ratio was no more than 0.25.

Take TLDS: the enrichment ratio is no more than 0.25.

In the case of IATS, the enrichment ratio is no more than 0.25.

As for VMGY, the enrichment ratio is no more than 0.25.

As for YMRF, the enrichment ratio was no more than 0.25.

QGDQ: the enrichment ratio was no more than 0.25.

Turning to YESE, the enrichment ratio is no more than 0.25.

Regarding DTID, the enrichment ratio is no more than 0.25.

For CVLP, the enrichment ratio was no more than 0.25.

Consider DEGP, for which the enrichment ratio was no more than 0.25.

Take FSFC: the enrichment ratio was no more than 0.25.

With GLMS, the enrichment ratio is no more than 0.25.

Consider CTVM, for which the enrichment ratio is no more than 0.25.

For HNTE, the enrichment ratio was no more than 0.25.

With NLYL, the enrichment ratio was no more than 0.25.

Values taken from a collection of fitness landscapes (doi:10.1126/science.1257360).
